Experimental data published in PubChem BioAssay AID686979 (National Center for Advancing Translational Sciences (NCATS), 2013).
Among all 420,000 compounds or so, about 50,000 (12%) were called active. The inconclusive results got no clear call from the source; some entries with a clear call stand among them for comparison. Calls come from the whole dose curve; as a rule, active = well fitted inhibition curve with a large enough effect; inconclusive = small, poorly fitted or top-dose-only effect; inactive = flat fitted curve, though single readings scatter. No potency is given beside an inconclusive call; the fits are too rough.

Test: qHTS for Inhibitors of human tyrosyl-DNA phosphodiesterase 1 (TDP1): qHTS in cells in presence of CPT; note: nearly all actives have a fitted effect of over 55% in size
Details: chicken DT40 Tdp1-/-;hTDP1 cells + 20 nM CPT, ATP luminescence, 48 h; activity change, negative = growth inhibition: at 46.2 µM (top of the series)
Summary of the method: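 Chicken DT40 Tdp1-/- cells complemented with human TDP1, 400 cells/well, exposed to compounds plus 20 nM camptothecin for at least 48 h at 37 C; viability read as ATP content by CellTiter-Glo luminescence.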
% is set by controls: 0 for no effect and ±100 for the full control effect; potency is the fitted concentration of half-maximal effect; tags give direction and shape of the fitted curve.

**Q.** With `CC1CCN(C(c2ccccc2)c2sc3nc(-c4ccco4)nn3c2O)CC1` (centres undefined) as the compound, how does the Potency read?
**A.** inconclusive [inhibitor, single point]

**Q.** For `CCc1nnc(NS(=O)(=O)c2ccc(NCc3cc(Cl)ccc3O)cc2)s1`, which Potency is on record?
**A.** inconclusive [inhibitor, full curve, poor fit]

**Q.** Which Potency does the source give for `COc1ccc(N(CC(=O)Nc2cc(C)cc(C)c2)S(=O)(=O)c2ccccc2[N+](=O)[O-])c(OC)c1` here?
**A.** inconclusive [inhibitor, single point]

**Q.** With `C=CCC(CC(O)COCCC)C(=O)NNC(=S)Nc1ccccc1` (centres undefined) as the compound, how does the Potency read?
**A.** active: 4.61 µM

**Q.** For `CC1C/C(=N\NC(N)=S)c2cc(Cl)ccc2S1` (centres undefined), which “activity change, negative = growth inhibition” value is on record?
**A.** inactive: -2.48%

**Q.** Which “activity change, negative = growth inhibition” value does the source give for `CCC(=O)Oc1ccc(C2NC(=O)c3ccccc3O2)cc1OC` (centres undefined) here?
**A.** inactive: 10.4%

**Q.** For `COc1cccc(NC(=O)[C@@H]2CCCN2S(=O)(=O)c2cccc3cccnc23)c1`, which Potency is on record?
**A.** inconclusive [inhibitor, single point]

**Q.** With `COc1ccc(NC(=O)CSc2nc(-c3cc(OC)c(OC)c(OC)c3)[nH]c2-c2ccc(F)cc2)cc1` as the compound, how does the Potency read?
**A.** inconclusive [inhibitor, single point]

**Q.** Which “activity change, negative = growth inhibition” value does the source give for `Nc1nc(-c2ccc([N+](=O)[O-])cc2)cs1` here?
**A.** inactive: -15.9%

**Q.** For `C=CCn1c(SCC(=O)N2CCc3ccccc3C2)nc2sc(CC)cc2c1=O`, which activity change, negative = growth inhibition is on record?
**A.** inconclusive: -30.7% [inhibitor]

**Q.** With `CCOC(=O)c1c(-c2ncc(C(F)(F)F)cc2Cl)noc1C` as the compound, how does the “activity change, negative = growth inhibition” value read?
**A.** inactive: -13.5%

**Q.** With `Cc1ccc(Nc2cc(C(=O)NCCc3ccccc3)c3ccccc3n2)c(C)c1` as the compound, how does the Potency read?
**A.** inconclusive [inhibitor, partial curve]

**Q.** Which Potency does the source give for `O=C(c1nnsc1S(=O)c1ccc(Cl)cc1)N1CCOCC1` (centres undefined) here?
**A.** active: 0.461 µM

**Q.** Which Potency does the source give for `COCCN(CCOC)S(=O)(=O)c1ccc(/C(O)=C(\C#N)c2nc3ccccc3[nH]2)cc1` here?
**A.** inconclusive [inhibitor, single point]

**Q.** With `CC(=O)Oc1cccc(C(=O)Nc2ccc(NC(=O)c3cccs3)cc2)c1` as the compound, how does the Potency read?
**A.** inconclusive [inhibitor, partial curve]

**Q.** Which Potency does the source give for `CCC[C@@H](CN1CCC[C@H]1CN1C(N)=NC[C@H]1CC(C)C)N1C[C@@H](Cc2ccccc2)N(CCCC2CCCC2)C1=N` here?
**A.** active: 10.3 µM

**Q.** Which Potency does the source give for `COc1ccc(CNC(=O)N2CCN(c3ccc(F)cc3)CC2)cc1Cl` here?
**A.** inconclusive [inhibitor, single point]

**Q.** Which “activity change, negative = growth inhibition” value does the source give for `O=C(CCN1C(=O)/C(=C/c2ccccc2)SC1=S)NNC(=O)c1cccnc1` here?
**A.** inactive: -28.5%

**Q.** Which Potency does the source give for `Nc1nc(-c2cccc(F)c2)cs1` here?
**A.** inconclusive [inhibitor, partial curve, poor fit]

**Q.** With `CC(=O)c1ccc(C(=O)Nc2ccc3c(c2)C(=O)NC3=O)cc1` as the compound, how does the “activity change, negative = growth inhibition” value read?
**A.** inactive: 2.44%

**Q.** With `O=C(COc1ccccc1C(=O)O)Nc1nc2ccc([N+](=O)[O-])cc2s1` as the compound, how does the Potency read?
**A.** inconclusive [inhibitor, single point]

**Q.** Which “activity change, negative = growth inhibition” value does the source give for `O=C(Cn1nc(-c2ccc(Cl)cc2)c2ccccc2c1=O)Nc1cccc(Br)c1` here?
**A.** inactive: -21.2%

**Q.** For `Cc1[nH]nc2c1C1(C(=O)N(Cc3ccc(Cl)cc3)c3ccccc31)C(C#N)=C(N)O2` (centres undefined), which Potency is on record?
**A.** active: 23.1 µM

**Q.** For `COc1ccc(-c2ccc(/C=N/NC(=O)Cc3nnc(N)s3)o2)cc1Cl`, which Potency is on record?
**A.** inconclusive [inhibitor, single point]

**Q.** Which “activity change, negative = growth inhibition” value does the source give for `COC(=O)C[C@H]1C=C[C@@H](NC(=O)Nc2c(C)noc2C)[C@@H](CO)O1` here?
**A.** inactive: -0.247%

**Q.** Which Potency does the source give for `CCCOC(=O)c1cccc(NC(=O)c2c(-c3ccccc3Cl)noc2C)c1` here?
**A.** active: 7.31 µM

**Q.** With `Cc1nc([N+](=O)[O-])c(N2CCOCC2)n1Cc1ccccc1` as the compound, how does the “activity change, negative = growth inhibition” value read?
**A.** inactive: -3.75%

**Q.** With `Cc1cccc(NCc2ccc([N+](=O)[O-])s2)c1` as the compound, how does the “activity change, negative = growth inhibition” value read?
**A.** inactive: -1.15%

**Q.** For `O=C(C[C@@H]1C/C=C/CC[C@@H](Cc2ccc(F)cc2)C(=O)O[C@@H](c2ccccc2)CNC1=O)NCCO`, which Potency is on record?
**A.** inconclusive [inhibitor, single point]

**Q.** With `CCCCn1c(N)c(N(CC)C(=O)c2cccc(S(=O)(=O)N3CCCc4ccccc43)c2)c(=O)[nH]c1=O` as the compound, how does the Potency read?
**A.** inconclusive [inhibitor, single point]

**Q.** For `O=C(Nc1cccc(F)c1)C1CCCN(S(=O)(=O)c2cccc3cccnc23)C1` (centres undefined), which Potency is on record?
**A.** active: 18.4 µM

**Q.** For `O=c1[nH]nc(Cc2ccccn2)c2ccccc12`, which Potency is on record?
**A.** inconclusive [inhibitor, full curve]

**Q.** With `Cc1ccc(C(=O)N/C(=C/c2ccc(-c3cccc([N+](=O)[O-])c3)o2)C(=O)NC(C)C)cc1` as the compound, how does the Potency read?
**A.** inconclusive [inhibitor, single point]

**Q.** Which Potency does the source give for `CCOC(=O)C1=C(C)N(C)C(C)=C(C(=O)OCC)C1c1ccccc1` here?
**A.** inconclusive [inhibitor, single point]

**Q.** Which Potency does the source give for `O=[N+]([O-])c1ccccc1S(=O)c1ccccc1[N+](=O)[O-]` here?
**A.** active: 10.3 µM

**Q.** For `O=C(COC(=O)c1n[nH]c(=O)c2ccccc12)NC1CCCCC1`, which “activity change, negative = growth inhibition” value is on record?
**A.** inactive: -3.26%

**Q.** For `CN(C)c1ccc(/C=N/N(Cc2ccccc2)c2ccccc2)cc1`, which “activity change, negative = growth inhibition” value is on record?
**A.** inactive: 5.33%

**Q.** With `COc1ccc(CNC(=O)C2CCN(c3nnc(-n4c(C)ccc4C)s3)CC2)c(OC)c1` as the compound, how does the Potency read?
**A.** inconclusive [inhibitor, single point]

**Q.** With `Cc1cccc(C2CN(C)CCc3c2cc(O)c(O)c3Cl)c1` (centres undefined) as the compound, how does the Potency read?
**A.** inconclusive [inhibitor, partial curve, poor fit]

**Q.** Which “activity change, negative = growth inhibition” value does the source give for `CCOc1ccc(NC(=O)N(C2CCCCCC2)C2CCN(C(C)=O)CC2)cc1` here?
**A.** inactive: -14.5%

**Q.** For `Cc1nc2ccc(S(=O)(=O)N(C)CC(=O)Nc3ccc(C(C)C)cc3)cc2s1`, which Potency is on record?
**A.** inconclusive [inhibitor, single point]

**Q.** For `Cc1ccccc1Cn1c(COc2ccc(Cl)cc2)nc2ccccc21`, which Potency is on record?
**A.** inconclusive [inhibitor, single point]

**Q.** With `Cn1c(N)c(C(=O)COC(=O)c2cc(-c3ccccc3)nc3ccccc23)c(=O)n(Cc2ccccc2)c1=O` as the compound, how does the Potency read?
**A.** inconclusive [inhibitor, single point]

**Q.** Which activity change, negative = growth inhibition does the source give for `CC1CCN(S(=O)(=O)c2ccc3c(c2)c(=O)c(C(=O)N2CCN(c4cccc(Cl)c4)CC2)cn3C)CC1` here?
**A.** inconclusive: -33.8% [inhibitor]
